Reference: the supplement of paper PMC10037445
Values joined by “and” are separate entries in the source; they are usually repeats but may differ in a detail not shown here. Equal values may be shown once. Whole data set: some 2,900 compounds, median “NF-kB SEAP reporter activity, fold change vs agonist alone” near 0.99, cut for the highest 2% near 2.6. This is one part of the list.

Columns and labels:
RAW-Dual [1] = test: NF-kB SEAP reporter activity, fold change vs agonist alone; cytotoxicity flag (confluency mask): not cytotoxic; higher = enhanced NF-kB activity
Summary of the method: (§1)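 Cytotoxic wells were those whose IncuCyte confluency was below 70% of agonist controls in both mask sets. The cells were RAW-Dual macrophages at 50,000 cells/well in DMEM on 384-well plates, dosed with 50 nL of library stock by pin tool, stimulated with a PRR agonist 1 h later, and kept at 37 °C, 5% CO2 for 20 hours. IRF and NF-κB reporter activity, as fold change over agonist-alone wells, came from supernatant read by QuantiLuc luminescence and QuantiBlue absorbance, respectively.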

RAW-Dual [2] = test: NF-kB SEAP reporter activity, fold change vs agonist alone; higher = enhanced NF-kB activity
Summary of the method: as §1

RAW-Dual [3] = test: NF-kB SEAP reporter activity, fold change vs agonist alone; cytotoxicity flag (confluency mask): cytotoxic (confluency <70% of control); higher = enhanced NF-kB activity
Summary of the method: as §1

[4] = agonist: ODN 1826 (TLR9) 0.5 ug/mL
[5] = agonist: Pam2CSK4 (TLR2/6) 0.1 ug/mL
[6] = agonist: Pam3CSK4 (TLR2/1) 0.1 ug/mL
[7] = library stock concentration (final ~1000-fold dilution): 10 mM, cytotoxicity flag (confluency mask): not cytotoxic, agonist: Imiquimod (TLR7) […]
[8] = library stock concentration (final ~1000-fold dilution): 10 mM, cytotoxicity flag (confluency mask): not cytotoxic, agonist: MPLA (TLR4) […]
[9] = library stock concentration (final ~1000-fold dilution): 10 mM, cytotoxicity flag (confluency mask): cytotoxic (confluency <70% of control), agonist: Imiquimod (TLR7) […]
[10] = library stock concentration (final ~1000-fold dilution): 10 mM, cytotoxicity flag (confluency mask): cytotoxic (confluency <70% of control), agonist: MPLA (TLR4) […]

With `CN(C)CCC(c1ccccc1)c1ccccn1.O=C(O)/C=C\C(=O)O` (configuration not stated) (library stock concentration (final ~1000-fold dilution): 10 mM) the “NF-kB SEAP reporter activity” value (RAW-Dual [1]; agonist: LPS (TLR4) 0.1 ug/mL) was 1.02, the “NF-kB SEAP reporter activity” value (RAW-Dual [1]; [4]) was 0.837 and the “NF-kB SEAP reporter activity” value (RAW-Dual [1]; [5]) was 1.08. For the same molecule, the “NF-kB SEAP reporter activity” value (RAW-Dual [1]; [6]) was 1.09.

`CN(C)CCC(c1ccccc1)c1ccccn1.O=C(O)/C=C\C(=O)O` (configuration not stated) was tested, and the “NF-kB SEAP reporter activity” value (RAW-Dual [2]; [7]) was 0.937 and the “NF-kB SEAP reporter activity” value (RAW-Dual [2]; [8]) was 1.06.

`Nc1nc(=O)n(C2CSC(CO)O2)cc1F` (configuration not stated) (library stock concentration (final ~1000-fold dilution): 10 mM) was tested, and the “NF-kB SEAP reporter activity” value (RAW-Dual [1]; agonist: LPS (TLR4) 0.1 ug/mL) was 0.99, the “NF-kB SEAP reporter activity” value (RAW-Dual [1]; [4]) was 1.1 and the “NF-kB SEAP reporter activity” value (RAW-Dual [1]; [5]) was 1.1. For the same molecule, the “NF-kB SEAP reporter activity” value (RAW-Dual [1]; [6]) was 1.13.

`Nc1nc(=O)n(C2CSC(CO)O2)cc1F` (configuration not stated) was tested, and the “NF-kB SEAP reporter activity” value (RAW-Dual [2]; [7]) was 0.983 and the “NF-kB SEAP reporter activity” value (RAW-Dual [2]; [8]) was 1.14.

With `Cc1ccc(NS(=O)(=O)c2ccc3c(c2)C2C=CCC2C(c2ccc(C(=O)O)cc2)N3)cc1C` (configuration not stated) (library stock concentration (final ~1000-fold dilution): 10 mM) the “NF-kB SEAP reporter activity” value (RAW-Dual [1]; agonist: LPS (TLR4) 0.1 ug/mL) was 1.01, the “NF-kB SEAP reporter activity” value (RAW-Dual [1]; [4]) was 0.883 and the “NF-kB SEAP reporter activity” value (RAW-Dual [1]; [5]) was 0.824. The “NF-kB SEAP reporter activity” value (RAW-Dual [1]; [6]) was 1.

With `Cc1ccc(NS(=O)(=O)c2ccc3c(c2)C2C=CCC2C(c2ccc(C(=O)O)cc2)N3)cc1C` (configuration not stated) the “NF-kB SEAP reporter activity” value (RAW-Dual [2]; [7]) was 0.849 and the “NF-kB SEAP reporter activity” value (RAW-Dual [2]; [8]) was 0.997.

`Cc1cc2c(cc1S(N)(=O)=O)S(=O)(=O)CCC2` (library stock concentration (final ~1000-fold dilution): 10 mM) was tested, and the “NF-kB SEAP reporter activity” value (RAW-Dual [1]; agonist: LPS (TLR4) 0.1 ug/mL) was 1.09, the “NF-kB SEAP reporter activity” value (RAW-Dual [1]; [4]) was 0.957 and the “NF-kB SEAP reporter activity” value (RAW-Dual [1]; [5]) was 0.98. The “NF-kB SEAP reporter activity” value (RAW-Dual [1]; [6]) was 1.27.

With `Cc1cc2c(cc1S(N)(=O)=O)S(=O)(=O)CCC2` the “NF-kB SEAP reporter activity” value (RAW-Dual [2]; [7]) was 0.914 and the “NF-kB SEAP reporter activity” value (RAW-Dual [2]; [8]) was 1.

For `O=c1cc(-c2ccc(O)cc2)oc2cc(O)c([C@@H]3O[C@H](CO)[C@@H](O)[C@H](O)[C@H]3O)c(O)c12` (library stock concentration (final ~1000-fold dilution): 10 mM), the “NF-kB SEAP reporter activity” value (RAW-Dual [1]; agonist: LPS (TLR4) 0.1 ug/mL) was 1.09, the “NF-kB SEAP reporter activity” value (RAW-Dual [1]; [4]) was 1.06 and the “NF-kB SEAP reporter activity” value (RAW-Dual [1]; [5]) was 1.09. The “NF-kB SEAP reporter activity” value (RAW-Dual [1]; [6]) was 1.03.

For `O=c1cc(-c2ccc(O)cc2)oc2cc(O)c([C@@H]3O[C@H](CO)[C@@H](O)[C@H](O)[C@H]3O)c(O)c12`, the “NF-kB SEAP reporter activity” value (RAW-Dual [2]; [7]) was 0.939 and the “NF-kB SEAP reporter activity” value (RAW-Dual [2]; [8]) was 0.988.

`CCn1c2ccccc2c2cc(Nc3ccnc(NCCCN4CCOCC4)n3)ccc21` was tested, and the “NF-kB SEAP reporter activity” value (RAW-Dual [2]; [9]) was 0.322 and the “NF-kB SEAP reporter activity” value (RAW-Dual [2]; [10]) was 0.535.

With `CCn1c2ccccc2c2cc(Nc3ccnc(NCCCN4CCOCC4)n3)ccc21` (library stock concentration (final ~1000-fold dilution): 10 mM) the “NF-kB SEAP reporter activity” value (RAW-Dual [3]; agonist: LPS (TLR4) 0.1 ug/mL) was 0.416, the “NF-kB SEAP reporter activity” value (RAW-Dual [3]; [4]) was 0.202 and the “NF-kB SEAP reporter activity” value (RAW-Dual [3]; [5]) was 0.119. The “NF-kB SEAP reporter activity” value (RAW-Dual [3]; [6]) was 0.152.

With `COC1CC2CCC(C)C(O)(O2)C(=O)C(=O)N2CCCCC2C(=O)OC(C(C)CC2CCC(n3cnnn3)C(OC)C2)CC(=O)C(C)C=C(C)C(O)C(OC)C(=O)C(C)CC(C)C=CC=CC=C1C` (configuration not stated) (library stock concentration (final ~1000-fold dilution): 10 mM) the “NF-kB SEAP reporter activity” value (RAW-Dual [1]; agonist: LPS (TLR4) 0.1 ug/mL) was 0.705, the “NF-kB SEAP reporter activity” value (RAW-Dual [1]; [4]) was 0.901 and the “NF-kB SEAP reporter activity” value (RAW-Dual [1]; [5]) was 0.487. The “NF-kB SEAP reporter activity” value (RAW-Dual [1]; [6]) was 0.539.

`COC1CC2CCC(C)C(O)(O2)C(=O)C(=O)N2CCCCC2C(=O)OC(C(C)CC2CCC(n3cnnn3)C(OC)C2)CC(=O)C(C)C=C(C)C(O)C(OC)C(=O)C(C)CC(C)C=CC=CC=C1C` (configuration not stated) was tested, and the “NF-kB SEAP reporter activity” value (RAW-Dual [2]; [7]) was 1.63 and the “NF-kB SEAP reporter activity” value (RAW-Dual [2]; [8]) was 0.942.

For `CC(C)c1ccc2oc3nc(N)c(C(=O)O)cc3c(=O)c2c1` (library stock concentration (final ~1000-fold dilution): 10 mM), the “NF-kB SEAP reporter activity” value (RAW-Dual [1]; agonist: LPS (TLR4) 0.1 ug/mL) was 0.922 and 0.879, the “NF-kB SEAP reporter activity” value (RAW-Dual [1]; [4]) was 1.21 and 0.977 and the “NF-kB SEAP reporter activity” value (RAW-Dual [1]; [5]) was 1.02 and 1.01. The “NF-kB SEAP reporter activity” value (RAW-Dual [1]; [6]) was 1.24 and 0.93.

For `CC1CN(CC(Cc2ccccc2)C(=O)NCC(=O)O)CCC1(C)c1cccc(O)c1` (configuration not stated), the “NF-kB SEAP reporter activity” value (RAW-Dual [2]; [7]) was 1.03 and the “NF-kB SEAP reporter activity” value (RAW-Dual [2]; [8]) was 1.01.

With `CC1CN(CC(Cc2ccccc2)C(=O)NCC(=O)O)CCC1(C)c1cccc(O)c1` (configuration not stated) (library stock concentration (final ~1000-fold dilution): 10 mM) the “NF-kB SEAP reporter activity” value (RAW-Dual [1]; agonist: LPS (TLR4) 0.1 ug/mL) was 1.51, the “NF-kB SEAP reporter activity” value (RAW-Dual [1]; [4]) was 1.01 and the “NF-kB SEAP reporter activity” value (RAW-Dual [1]; [5]) was 0.937. For the same molecule, the “NF-kB SEAP reporter activity” value (RAW-Dual [1]; [6]) was 0.609.

For `C=C1CCC(O)CC1=CC=C1CCCC2(C)C1CCC2C(C)CCCC(C)C` (configuration not stated) (library stock concentration (final ~1000-fold dilution): 1 mM), the “NF-kB SEAP reporter activity” value (RAW-Dual [1]; agonist: LPS (TLR4) 0.1 ug/mL) was 0.593, the “NF-kB SEAP reporter activity” value (RAW-Dual [1]; [4]) was 1.12 and the “NF-kB SEAP reporter activity” value (RAW-Dual [1]; [5]) was 1.12. The “NF-kB SEAP reporter activity” value (RAW-Dual [1]; [6]) was 1.27.

In the case of `C=C1CCC(O)CC1=CC=C1CCCC2(C)C1CCC2C(C)CCCC(C)C` (configuration not stated), the “NF-kB SEAP reporter activity” value (RAW-Dual [2]; library stock concentration (final ~1000-fold dilution): 1 mM, cytotoxicity flag (confluency mask): not cytotoxic, agonist: Imiquimod (TLR7) […]) is reported as 1.17 and the “NF-kB SEAP reporter activity” value (RAW-Dual [2]; library stock concentration (final ~1000-fold dilution): 1 mM, cytotoxicity flag (confluency mask): not cytotoxic, agonist: MPLA (TLR4) […]) is reported as 0.651.

In the case of `Cc1cn(C2C=CC(CO)O2)c(=O)[nH]c1=O` (configuration not stated) (library stock concentration (final ~1000-fold dilution): 10 mM), the “NF-kB SEAP reporter activity” value (RAW-Dual [1]; agonist: LPS (TLR4) 0.1 ug/mL) is reported as 1.04, the “NF-kB SEAP reporter activity” value (RAW-Dual [1]; [4]) is reported as 1.05 and the “NF-kB SEAP reporter activity” value (RAW-Dual [1]; [5]) is reported as 1. For the same molecule, the “NF-kB SEAP reporter activity” value (RAW-Dual [1]; [6]) was 1.11.

In the case of `Cc1cn(C2C=CC(CO)O2)c(=O)[nH]c1=O` (configuration not stated), the “NF-kB SEAP reporter activity” value (RAW-Dual [2]; [7]) is reported as 0.97 and the “NF-kB SEAP reporter activity” value (RAW-Dual [2]; [8]) is reported as 1.06.

For `Br.CCCc1cc(-c2nc(-c3ccc(C)cc3)cs2)ccn1`, the “NF-kB SEAP reporter activity” value (RAW-Dual [2]; [9]) was 1.1 and the “NF-kB SEAP reporter activity” value (RAW-Dual [2]; [10]) was 1.37.

With `Br.CCCc1cc(-c2nc(-c3ccc(C)cc3)cs2)ccn1` (library stock concentration (final ~1000-fold dilution): 10 mM) the “NF-kB SEAP reporter activity” value (RAW-Dual [3]; agonist: LPS (TLR4) 0.1 ug/mL) was 1.54, the “NF-kB SEAP reporter activity” value (RAW-Dual [3]; [4]) was 1.04 and the “NF-kB SEAP reporter activity” value (RAW-Dual [3]; [5]) was 1.07. The “NF-kB SEAP reporter activity” value (RAW-Dual [3]; [6]) was 0.895.

For `CC1CC(OC(=O)C(O)c2ccccc2)CC(C)(C)C1` (configuration not stated) (library stock concentration (final ~1000-fold dilution): 10 mM), the “NF-kB SEAP reporter activity” value (RAW-Dual [3]; agonist: LPS (TLR4) 0.1 ug/mL) was 0.979, the “NF-kB SEAP reporter activity” value (RAW-Dual [3]; [4]) was 1.09 and the “NF-kB SEAP reporter activity” value (RAW-Dual [3]; [5]) was 1.18. The “NF-kB SEAP reporter activity” value (RAW-Dual [3]; [6]) was 1.17.

In the case of `CC1CC(OC(=O)C(O)c2ccccc2)CC(C)(C)C1` (configuration not stated), the “NF-kB SEAP reporter activity” value (RAW-Dual [2]; [9]) is reported as 1.29 and the “NF-kB SEAP reporter activity” value (RAW-Dual [2]; [10]) is reported as 1.2.

For `COc1ccc(CNc2nc(N3CCCC3CO)ncc2C(=O)NCc2ncccn2)cc1Cl` (configuration not stated), the “NF-kB SEAP reporter activity” value (RAW-Dual [2]; [7]) was 1.16 and the “NF-kB SEAP reporter activity” value (RAW-Dual [2]; [8]) was 1.39.

For `COc1ccc(CNc2nc(N3CCCC3CO)ncc2C(=O)NCc2ncccn2)cc1Cl` (configuration not stated) (library stock concentration (final ~1000-fold dilution): 10 mM), the “NF-kB SEAP reporter activity” value (RAW-Dual [1]; agonist: LPS (TLR4) 0.1 ug/mL) was 1.73, the “NF-kB SEAP reporter activity” value (RAW-Dual [1]; [4]) was 1.39 and the “NF-kB SEAP reporter activity” value (RAW-Dual [1]; [5]) was 1.33. The “NF-kB SEAP reporter activity” value (RAW-Dual [1]; [6]) was 1.36.
